The whole screen tested about 360,000 compounds, of which about 660 (0.18%) were called active. The shares of active, inactive and inconclusive entries below differ from those in the screen. The call rests on the fitted dose curve; in most records, active means well fitted inhibition curve with a large enough effect; inconclusive means small, poorly fitted or top-dose-only effect; inactive means no such curve, though single readings can be large or run the other way. No potency is given beside an inconclusive call; the fits are too rough.
target: Rap guanine nucleotide exchange factor 4 (Homo sapiens) (UniProt Q8WZA2); test: qHTS for Antagonist of cAMP-regulated guanine nucleotide exchange factor 2 (EPAC2): primary screen; settings: EPAC2 GEF exchange of Rap1B-BODIPY-GDP, fluorescence; activity, negative = inhibition: at 114 µM (top of the series) unless noted; further: nearly all actives have a fitted effect of over 45% in size
On the % scale 0 is the no-effect control and ±100 the full control effect; potency means the concentration at half of the fitted maximal effect; tags describe the fitted curve by direction and shape.

Chain of UniProt Q8WZA2 (Q8WZA2 whole entry, looked up): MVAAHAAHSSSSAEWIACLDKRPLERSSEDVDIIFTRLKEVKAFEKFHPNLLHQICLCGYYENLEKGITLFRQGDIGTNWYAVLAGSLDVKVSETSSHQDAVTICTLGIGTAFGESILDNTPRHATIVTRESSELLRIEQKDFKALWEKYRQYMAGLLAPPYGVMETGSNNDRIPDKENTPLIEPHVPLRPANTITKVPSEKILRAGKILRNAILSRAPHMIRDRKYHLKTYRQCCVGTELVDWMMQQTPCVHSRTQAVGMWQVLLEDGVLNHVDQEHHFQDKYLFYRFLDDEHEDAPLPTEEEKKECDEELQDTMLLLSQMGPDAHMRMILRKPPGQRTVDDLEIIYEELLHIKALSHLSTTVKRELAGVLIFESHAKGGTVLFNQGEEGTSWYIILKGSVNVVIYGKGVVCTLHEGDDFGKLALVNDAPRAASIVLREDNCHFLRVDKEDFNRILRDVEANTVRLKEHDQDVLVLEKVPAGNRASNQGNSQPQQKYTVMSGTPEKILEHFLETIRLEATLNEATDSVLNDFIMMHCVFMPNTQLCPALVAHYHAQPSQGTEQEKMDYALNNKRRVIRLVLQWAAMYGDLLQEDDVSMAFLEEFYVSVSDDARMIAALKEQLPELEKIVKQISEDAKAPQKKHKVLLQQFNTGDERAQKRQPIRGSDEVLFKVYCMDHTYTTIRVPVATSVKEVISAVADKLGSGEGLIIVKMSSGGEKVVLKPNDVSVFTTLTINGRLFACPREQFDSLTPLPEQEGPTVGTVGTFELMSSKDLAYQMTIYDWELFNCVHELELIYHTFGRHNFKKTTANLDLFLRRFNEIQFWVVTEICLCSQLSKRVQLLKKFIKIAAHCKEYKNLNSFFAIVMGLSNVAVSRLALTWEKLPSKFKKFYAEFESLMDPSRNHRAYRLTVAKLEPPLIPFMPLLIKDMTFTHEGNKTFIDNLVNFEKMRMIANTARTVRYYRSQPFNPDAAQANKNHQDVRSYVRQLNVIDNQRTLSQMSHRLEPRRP

SMILES | Potency | activity, negative = inhibition
CCCCC[C@H](C)N1C[C@@H](COCc2ccccc2)Oc2cc(N3CC[C@H](N(C)C)C3)ccc2S1(=O)=O | inconclusive [inhibitor, partial curve] | 
CC1=C(C(=O)OC2CCCCC2)C(c2ccccc2Br)NC(=O)N1 (stereo not given) | inconclusive [inhibitor, partial curve] | 
Cc1c(C)c2c(OCC(=O)N3CCC(C(=O)O)CC3)cc3c(c2oc1=O)CCC(C)(C)O3 | inconclusive [inhibitor, single point] | 
Cc1ccccc1Nc1cc2ccccc2c(=O)[nH]1 | inconclusive [inhibitor, single point] | 
CCn1c(=O)c2c3c(sc2n2c(SCc4ccc(F)cc4)nnc12)CCCC3 | inconclusive [inhibitor, single point] | 
CC1CCc2sc(C(=O)NC3CCCCC3)cc2C1 (stereo not given) |  | inactive: 1.01%
CCCCc1c(-c2ccccc2OC)ncn1CCc1ccccc1Cl | inconclusive [inhibitor, partial curve] | 
CCCCNC(=O)c1sc(=S)n2c1[nH]c(=O)c1ccccc12 | inconclusive [inhibitor, single point] | 
O=C(Nc1nc2nccc(-c3ccccc3)n2n1)c1ccccc1 |  | inactive: -2.32%
Cc1n[nH]c(=S)c2nn(-c3ccccc3F)c(C)c12 | inconclusive [inhibitor, partial curve] | 
Cc1cccnc1NC(=S)Nc1ccc(Br)cc1Cl | inconclusive [inhibitor, full curve] | 
Cc1csc(NC(C)c2nc3cc(Cl)c(Cl)cc3n2CCCO)n1 (stereo not given) |  | inactive: -1.64%
Cc1ccc(C2C(C#N)=C3N=C(N)c4ccccc4N3C3=C2C(=O)CCC3)cc1 (stereo not given) | inconclusive [inhibitor, partial curve] | 
CCOC(=O)c1ccc(NC2=CC(=O)C(=O)c3ccccc32)cc1 |  | inactive: -1.65%
C=CCOC(=O)C1=C[C@@H](c2csc3ccccc23)[C@H](CCCO)[C@@H](OCC)O1 | inconclusive [inhibitor, partial curve] | 
COC(=O)N/N=C/c1cn(CC(C)COc2ccccc2)c2ccccc12 (stereo not given) | inconclusive [inhibitor, partial curve] | 
CSc1ccc(CN(C)C(=O)CNC(=O)CNS(=O)(=O)c2ccc(C)c(C)c2)cc1 | inconclusive [inhibitor, partial curve] | 
COC(=O)C(C(=O)OC)c1ccc(-n2cccc2)cc1 | inconclusive [inhibitor, full curve] | 
COc1ccc(N2CCc3c(C)nc4c(OC)cc(OC)cc4c32)cc1 | inconclusive [inhibitor, single point] | 
CCCCC[C@H](C)N1C[C@@H](COCc2ccccc2)Oc2cc(N3CC[C@@H](O)C3)ccc2S1(=O)=O | inconclusive [inhibitor, partial curve] | 

SMILES | Potency | activity, negative = inhibition
Cc1ccc(C(C)C)c(OCC(=O)NCC(c2cccs2)N2CCOCC2)c1 (stereo not given) | inconclusive [inhibitor, partial curve, poor fit] | 
COc1cc(-c2cc(NC=O)c3ncc(-c4ccc(C(C)=O)cc4)n3c2)ccc1O |  | inactive: -10.6%
COc1ccc([C@H]2CC(=O)C=C(c3ccccc3Oc3ccccc3)C2)cc1 | inconclusive [inhibitor, full curve, poor fit] | 
CCCCn1c(NC(=O)c2ccccc2)c(C#N)c2nc3ccccc3nc21 | inconclusive [inhibitor, partial curve] | 
O=C(O)c1ccc(COc2ccccc2/C=C2/NC(=O)N(c3cccc(Cl)c3)C2=O)cc1 | inconclusive [inhibitor, partial curve] | 
CCOC(=O)C1=C(C)N=c2s/c(=C\c3ccc(OCC(=O)O)cc3)c(=O)n2C1c1ccc(OC(C)C)cc1 (stereo not given) |  | inactive: 3.36%
Cc1ccccc1-c1cc(C(=O)NCc2ccc3c(c2)OCO3)n(CC2CC(c3cccnc3)=NO2)n1 (stereo not given) | inconclusive [inhibitor, single point] | 
O=C(CSc1nc(-c2ccco2)cc(C(F)(F)F)n1)NCCc1ccccc1 | inconclusive [inhibitor, partial curve] | 
COc1ccc(OC)c(NC2c3ccccc3C(=O)N2Cc2ccc3c(c2)OCO3)c1 (stereo not given) | inconclusive [inhibitor, full curve, poor fit] | 
Cc1ccc(OCc2cc(C(=O)NCc3cc(F)ccc3C)no2)cn1 | inconclusive [inhibitor, full curve, poor fit] | 
Cc1ccc(NC(=O)C2(C)CCN2C2Cc3ccccc3C2)cc1 (stereo not given) | inconclusive [inhibitor, partial curve] | 
CN(C(=O)c1ccc(COc2ccccc2Br)o1)c1ccccc1 | inconclusive [inhibitor, partial curve] | 
Cc1csc(N=Nc2ccc(N(C)C)cc2)[n+]1[O-] | inconclusive [inhibitor, partial curve] | 
O=C(COC(=O)c1cc(-c2cccs2)nc2ccccc12)NC1CCS(=O)(=O)C1 (stereo not given) | inconclusive [inhibitor, single point] | 
CCCCC(CC)COC1(c2ccccc2)OC(=O)c2ccccc21 (stereo not given) | inconclusive [inhibitor, partial curve] | 
Cc1ccc(S(=O)(=O)N/N=C/c2cc(Br)ccc2O)cc1 | inconclusive [inhibitor, partial curve] | 
COC(=O)c1cc(S(=O)(=O)N2CCN(c3cccc(C)c3C)CC2)c[nH]1 | inconclusive [inhibitor, partial curve] | 
CCOC(=O)CN1C(=O)N[C@@H](c2cccc(F)c2)C(C(=O)OC)=C1C | inconclusive [inhibitor, partial curve, poor fit] | 
CC1CCN(S(=O)(=O)c2ccc3c(c2)N(CC(=O)NCc2cccnc2)C(=O)CS3)CC1 |  | inactive: -20.3% [at 57.1 µM]
CCOC(=O)C1(CC2CCCCO2)CCN(Cc2cn[nH]c2-c2cccc(F)c2)CC1 (stereo not given) |  | inactive: 2.86%
